# Data reported in the supplement of paper PMC4604168 (melanoma cell lines).
# This is one part of the list. Repeats are few or missing, and single values can be far off.
# How the values were obtained:
# Assay in all cases: cell count relative to DMSO control; melanoma cells; higher = more viable cells
# Conditions in all cases: library dose: standard library concentration; 72 h
# G361 = system: G361
# IPC-298 = system: IPC-298
# IST-MEL1 = system: IST-MEL1
# LB2518-MEL = system: LB2518-MEL
# LOXIMVI = system: LOXIMVI
# MEL-HO = system: MEL-HO
# MZ2-MEL = system: MZ2-MEL
# MeWo = system: MeWo
# RPMI7951 = system: RPMI7951
# RVH-421 = system: RVH-421
# SkMel28 = system: SkMel28
# SkMel2 = system: SkMel2
# SkMel30 = system: SkMel30
# SkMel5 = system: SkMel5
# UACC257 = system: UACC257
# UACC62 = system: UACC62
# WM115 = system: WM115
# WM1716 = system: WM1716
# WM1745 = system: WM1745
# WM3526 = system: WM3526
# 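Note: cells treated in 1,536-well plates, then fixed and DAPI-stained, with nuclei counted from automated high-throughput microscope images.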
SMILES,cell count (G361) [%],cell count (IPC-298) [%],cell count (IST-MEL1) [%],cell count (LB2518-MEL) [%],cell count (LOXIMVI) [%],cell count (MEL-HO) [%],cell count (MZ2-MEL) [%],cell count (MeWo) [%],cell count (RPMI7951) [%],cell count (RVH-421) [%],cell count (SkMel28) [%],cell count (SkMel2) [%],cell count (SkMel30) [%],cell count (SkMel5) [%],cell count (UACC257) [%],cell count (UACC62) [%],cell count (WM115) [%],cell count (WM1716) [%],cell count (WM1745) [%],cell count (WM3526) [%]
"CCCCCCCCc1ccc(CCC(N)(CO)CO)cc1 [fingolimod] + C[As](C)SC[C@H](NC(=O)CC[C@H](N)C(=O)O)C(=O)NCC(=O)O [Darinaparsin] (first compound 10 µM, partner dose 2 µM)",0.447,21.5,3.94,0.21,11,1.01,0.661,8.12,0.53,1.05,0.214,0.35,9.41,28.6,46.4,19.5,10.2,36.4,9.77,47.9
"CC(=O)O[C@@]12CO[C@@H]1C[C@H](O)[C@@]1(C)C(=O)[C@H](O)C3=C(C)[C@@H](OC(=O)[C@H](O)[C@@H](NC(=O)OC(C)(C)C)c4ccccc4)C[C@@](O)([C@@H](OC(=O)c4ccccc4)[C@H]21)C3(C)C [Docetaxel] + N.N.[Cl][Pt][Cl] [cisplatin] (first compound 0.0005 µM, partner dose 8 µM)",14.2,47.4,31.5,64.6,47.2,34.7,51.7,32.5,13.7,30.9,25.4,22.8,49.2,42.5,64.9,45.2,45.6,39.2,34.3,45.2
"CCN(CC)CCNC(=O)c1c(C)[nH]c(/C=C2\C(=O)Nc3ccc(F)cc32)c1C [sunitinib] + N.N.[Cl][Pt][Cl] [cisplatin] (first compound 2 µM, partner dose 8 µM)",83.2,91.6,98.1,65.9,121,90.8,122,56.5,92.2,90.4,88.1,112,57.1,60.1,92.1,48.7,47.9,119,48.8,58.2
"CC1(C)NC(=O)N(c2ccc([N+](=O)[O-])c(C(F)(F)F)c2)C1=O [nilutamide] + C/C(O)=C(\C#N)C(=O)Nc1cc(Br)ccc1Br [LFM-A13] (first compound 5 µM, partner dose 10 µM)",88.7,92.7,96.5,137,88.6,97.1,32.5,101,101,98.6,117,96,85.8,92.7,95,92.2,99.2,101,101,77.6
"Cc1cc(SCc2sc(-c3ccc(C(F)(F)F)c(F)c3)nc2C)ccc1OCC(=O)O + C/C(O)=C(\C#N)C(=O)Nc1cc(Br)ccc1Br [LFM-A13] (first compound 10 µM, partner dose 10 µM)",92.6,97,86.3,91,100,93.9,81.4,92.6,114,131,74.2,106,94.6,64.6,88,95.1,79.1,96,95.1,109
"O=c1[nH]nc(Sc2ncc([N+](=O)[O-])s2)n1-c1ccc2c(c1)OCCO2 + Cn1cc(C2=C(c3cn(C4CCN(Cc5ccccn5)CC4)c4ccccc34)C(=O)NC2=O)c2ccccc21 [Enzastaurin] (first compound 1 µM, partner dose 4 µM)",94.3,114,106,122,101,95.6,127,112,72.2,56.9,112,116,104,97.8,99.9,68.1,117,77.8,92.7,122
"NC1(c2ccc(-c3nc4ccn5c(=O)[nH]nc5c4cc3-c3ccccc3)cc2)CCC1 + C[As](C)SC[C@H](NC(=O)CC[C@H](N)C(=O)O)C(=O)NCC(=O)O [Darinaparsin] (first compound 2 µM, partner dose 2 µM)",90.1,85,73.5,75.7,73.8,67.1,78.4,53.4,59.3,55.1,54.2,63.4,67.4,43.1,81.8,55.4,81.3,57.9,82.7,51.5
"CO[C@@H]1[C@H](N(C)C(=O)c2ccccc2)C[C@H]2O[C@]1(C)n1c3ccccc3c3c4c(c5c6ccccc6n2c5c31)C(=O)NC4 [Midostaurin] + C/C(O)=C(\C#N)C(=O)Nc1cc(Br)ccc1Br [LFM-A13] (first compound 0.4 µM, partner dose 10 µM)",58.4,57.3,68.6,49,67.9,72.7,44.6,50.9,44.6,96.2,51.9,56.7,63.5,54.2,62.9,66.8,38,31.3,32.6,55.4
"Cn1cnc2c(F)c(Nc3ccc(Br)cc3Cl)c(C(=O)NOCCO)cc21 [selumetinib] + N.N.[Cl][Pt][Cl] [cisplatin] (first compound 0.075 µM, partner dose 8 µM)",77.6,71.8,90.1,57.4,98.1,85.4,106,70.7,91.9,69.4,87.8,86.4,48,85,92.4,62.4,71.7,66.8,89.1,58
"O=C(Nc1cc(C(F)(F)F)cc(C(F)(F)F)c1)c1cc(Cl)ccc1O + Cn1cc(C2=C(c3cn(C4CCN(Cc5ccccn5)CC4)c4ccccc34)C(=O)NC2=O)c2ccccc21 [Enzastaurin] (first compound 0.08 µM, partner dose 4 µM)",86.3,97.4,86.9,75.9,111,89.2,124,126,77.2,104,75.9,77.7,130,104,118,80.4,143,107,66.4,139
"O=C(/C=C/c1cccnc1)NCCCCC1CCN(C(=O)c2ccccc2)CC1 + C[As](C)SC[C@H](NC(=O)CC[C@H](N)C(=O)O)C(=O)NCC(=O)O [Darinaparsin] (first compound 0.05 µM, partner dose 2 µM)",3.06,21.8,52.9,46.5,74.5,34.4,19.5,68.9,93.6,41,78.6,10.1,86.4,54.5,107,66,73.9,61.8,102,64
"Cn1sc(=O)n(Cc2ccccc2)c1=O + C[As](C)SC[C@H](NC(=O)CC[C@H](N)C(=O)O)C(=O)NCC(=O)O [Darinaparsin] (first compound 2 µM, partner dose 2 µM)",110,90.4,114,83.2,116,105,116,84.7,98.6,82.9,105,100,86.3,96.4,102,94.1,135,89.1,96.2,97.6
"Cc1cc(Nc2cc(N3CCN(C)CC3)nc(/C=C/c3ccccc3)n2)n[nH]1 + N.N.[Cl][Pt][Cl] [cisplatin] (first compound 0.2 µM, partner dose 8 µM)",107,94.8,112,85.2,79.2,104,116,105,91.2,88.8,111,97.4,109,79.8,75.2,101,101,88.6,94.7,118
"O=C(O)c1ccc(-c2c[nH]c3ncc(-c4ccccc4)cc23)cc1C1CCCC1 + O=C(Oc1ccc([N+](=O)[O-])cc1)N1CCC(C(O)(c2ccc3c(c2)OCO3)c2ccc3c(c2)OCO3)CC1 [JZL184] (first compound 0.8 µM, partner dose 5 µM)",66.9,79.5,86.9,130,93.9,84.1,73,75.6,110,92.6,70.7,78.8,97.7,85.1,79.6,94.3,82.3,89.9,87,75.3
"COC(=O)c1sccc1S(=O)(=O)Nc1ccc(Nc2ccccc2)cc1OC + Cc1cc(SCc2sc(-c3ccc(C(F)(F)F)c(F)c3)nc2C)ccc1OCC(=O)O [GW0742] (first compound 5 µM, partner dose 10 µM)",88.2,88,97.5,97.7,125,87,79.9,102,87.1,106,70,88.1,100,84.3,82.9,85.5,90,101,75.3,94.5
"NCC(=O)Nc1ccc(-n2nc(C(F)(F)F)cc2-c2ccc3c(ccc4ccccc43)c2)cc1 + O=C(Oc1ccc([N+](=O)[O-])cc1)N1CCC(C(O)(c2ccc3c(c2)OCO3)c2ccc3c(c2)OCO3)CC1 [JZL184] (first compound 5 µM, partner dose 5 µM)",86,61.1,90.5,97,99,91.5,112,80.3,82.1,89.4,18,53.4,47.7,58.4,103,70,93.7,72.6,88.3,55.5
"N#CC[C@H](C1CCCC1)n1cc(-c2ncnc3[nH]ccc23)cn1 [ruxolitinib] + C[C@]12O[C@H](C[C@]1(O)CO)n1c3ccccc3c3c4c(c5c6ccccc6n2c5c31)CNC4=O [Lestaurtinib] (first compound 5 µM, partner dose 0.02 µM)",60.7,62.2,76,63.4,130,78.9,91.3,67.9,85.3,70.2,56.6,85,67.6,59.1,79.7,75.6,71.6,65.6,78.5,63.7
"O=C(Nc1cc(C(F)(F)F)cc(C(F)(F)F)c1)c1cc(Cl)ccc1O + C[C@]12O[C@H](C[C@]1(O)CO)n1c3ccccc3c3c4c(c5c6ccccc6n2c5c31)CNC4=O [Lestaurtinib] (first compound 0.08 µM, partner dose 0.02 µM)",72.4,74,94.9,51.8,110,78.5,86.2,63.5,102,86.6,66.6,84.2,69.4,66.3,78.9,76.9,82,93.1,64,61.6
"COc1ccc(-c2ccc3c(N4CCOCC4)nc(N4C[C@@H](C)O[C@@H](C)C4)nc3n2)cc1CO + C/C(O)=C(\C#N)C(=O)Nc1cc(Br)ccc1Br [LFM-A13] (first compound 0.1 µM, partner dose 10 µM)",87.3,75.4,80,86.4,79.9,87.2,83.1,80.5,65.1,75.1,55.3,80.7,80.7,60.4,94.2,55.2,68.4,109,74.9,81.2
"Cc1cc(SCc2sc(-c3ccc(C(F)(F)F)c(F)c3)nc2C)ccc1OCC(=O)O + O=C1NC(=O)/C(=C/c2ccc(-c3ccc(F)cc3O)o2)S1 [AS252424] (first compound 10 µM, partner dose 5 µM)",79.4,88.3,95.4,85.3,97,77.5,89.8,81,83.5,85.3,89.9,78,81.5,96.1,78.3,111,76.1,95.8,84.8,83.2
"Cc1cn(-c2cc(NC(=O)c3ccc(C)c(Nc4nccc(-c5cccnc5)n4)c3)cc(C(F)(F)F)c2)cn1 [nilotinib] + N.N.[Cl][Pt][Cl] [cisplatin] (first compound 1 µM, partner dose 8 µM)",83.3,86.2,72.3,71.7,121,82.9,85.1,84.7,81.6,78.7,62.2,73.5,68.5,78.3,83.4,65.7,85.7,83.2,77.9,82
"CCN(CC)CCNC(=O)c1c(C)[nH]c(/C=C2\C(=O)Nc3ccc(F)cc32)c1C [sunitinib] + C[As](C)SC[C@H](NC(=O)CC[C@H](N)C(=O)O)C(=O)NCC(=O)O [Darinaparsin] (first compound 2 µM, partner dose 2 µM)",55.2,70.2,77.3,48.9,110,72,78,42.4,53.1,77.9,43.9,59.7,44.8,30.1,86.2,45.4,50,85.2,40.3,42.5
